{
  "source": "patent US20250325717A1",
  "about": "“ANTI-NUCLEOPHOSMIN 1 ANTIBODY AND ANTIBODY CONJUGATE COMBINATION THERAPIES” (The Children's Medical Center Corporation, priority 2022, published 2025)",
  "molecules": {"B1": {"name": "Ab2.2 (antibody)", "heavy": "[sequence of about 100 residues not given]WRNNAFDYWGQGTLVTVSS[sequence of human IgG1 constant region not given]", "light": "SSELTQDPAVSVALGQTVRITCQGDSLRSYYASWYQQKPGQAPVLVIYGKNNRPSGIPDRFSGSSSGNTASLTITGAQAEDEADYYCNSSPRLKHRVVFGGGTKLTVLGQPKAAPSVTLFPPSSEELQANKATLVCLISDFYPGAVTVAWKADSSPVKAGVETTTPSKQSNNKYAASSYLSLTPEQWKSHRSYSCQVTHEGSTVEKTVAPTECS"}},
  "key": {"[1]": {"target": "T1, NPM1 on the cell surface of healthy, non-cancerous, cells (Homo sapiens, UniProt P06748)", "T1 construct": "from tissue; host or cells: healthy donor bone marrow (CD45+, CD33+, CD34+ cells)", "test": "Flow cytometry of healthy donor bone marrow cells", "assay_type": "cell-based", "conditions": "for cells double positive for CD34+ and Ab2.2: healthy HSCs", "method": "The ability of Ab2.2 to bind to NPM1 on the cell surface of healthy, non-cancerous, cells was also tested using flow cytometry. The cells measured for Ab2.2 binding were leukocytes (CD45+ cells), myeloid cells (CD33+ cells), and hematopoietic stem cells (“HSCs”; CD34+ cells). Only 3.78% of cells in Donor 1 were double positive for CD34+ and Ab2.2 (Donor 2 and Donor 3 had less than 3%)."}, "NPM1c/Flt3-ITD AML": {"test_system": "NPM1c/Flt3-ITD AML", "test": "Efficacy model 1: syngeneic NPM1c/Flt3-ITD AML transplantation", "assay_type": "in vivo, mice", "conditions": "5 mg/kg IP", "method": "Efficacy of treatment with Ab2.2 was assessed using different models. In efficacy model 1, mice were subjected sub-lethal irradiation, followed by transplantation of primary murine AML cells. The mice receiving the primary murine AML were administered weekly antibody treatments of Ab2.2 at a dose of 5 mg/kg. Administration occurred by IP injection. Weekly bleeds were performed and the overall survival of mice, analysis of bone marrow (BM) and spleen and molecular phenotyping were performed (FIG. 21A). The primary murine cells used were NPM1c/Flt3-ITD AML and a Syngeneic AML mouse model was used. The control group received 5 mg/kg dose (IgG) and the target group received 5 mg/kg dose (Ab2.2). Three doses (1 per week) were administered. […] The survival study ended at day 100 due to protocol, not toxicity or AML recurrence."}, "MLL-AF9/Flt3-ITD AML": {"test_system": "MLL-AF9/Flt3-ITD AML", "test": "Efficacy model 2: syngeneic MLL-AF9/Flt3-ITD AML transplantation", "assay_type": "in vivo, mice", "method": "In efficacy model 2, mice were subjected sub-lethal irradiation, followed by transplantation of primary murine AML cells. The mice receiving the primary murine AML was administered weekly antibody treatments of Ab2.2 at a dose of 5 mg/kg. Administration occurred by IP injection. Weekly bleeds were performed and the overall survival of mice, and molecular phenotyping were performed (FIG. 22A). The primary murine cells used for transplantation were MLL-AF9/Flt3-ITD AML. A syngeneic AML mouse model was used. The control group received 5 mg/kg dose (IgG) and the target group received 5 mg/kg dose (Ab2.2). A total of 4 doses of Ab2.2 were administered. Antibody binding was observed using flow cytometry (FIG. 22B). […] Survival was about 20 days in the IgG treated mice, compared to about 55 days in the Ab2.2 treated mice (FIG. 22C). Therefore, Ab2.2 improves overall survival in AML model with lower surface levels of NPM1.\nSpleen, lung and liver samples collected three days after the first dose of Ab2.2 treatment were compared between control (IgG) and Ab2.2 treated group. The spleens, lungs and livers of Ab2.2 treated mice all weighed less than the IgG treated mice (FIG. 23B)."}, "[2]": {"test": "Ab2.2 effects in sub-lethally irradiated wild type mice", "assay_type": "in vivo, C57BL/6J mice", "conditions": "sub-lethal irradiation; 10 mg/kg IP weekly, four treatments; D1 to D27; vs IgG", "method": "Wild type mice receiving sub-lethal irradiation were tested for effects of Ab2.2 treatment. WT C57BL/6J mice were subjected to sub-lethal irradiation and four treatments of Ab2.2. Ab2.2 treatments occurred weekly via IP injection and weekly bleeds were performed. Control group received 5 mg/kg of IgG and Ab2.2 treated groups received 10 mg/kg of Ab2.2. Regular blood counts, animal phenotyping and measurement of adverse/toxic effects were performed (FIG. 26A)."}, "[3]": {"test_system": "MC38 mouse colorectal adenocarcinoma", "test": "Efficacy model 4: MC38 solid tumor syngeneic model", "assay_type": "in vivo, mice", "conditions": "10 mg/kg, three doses (1 per week); day 10 and day 13", "method": "The solid tumor activity of Ab2.2 was assessed in vivo using efficacy model 4. In efficacy model 4, mice that had received transplantation were subjected to weekly treatment of Ab2.2 and assessed for overall survival, calculation of tumor burden and molecular phenotyping (FIG. 25A). The transplanted cells were from a MC38 mouse colorectal adenocarcinoma. A syngeneic mouse model was used. The control group received 10 mg/kg dose (IgG) and the target group received 10 mg/kg dose (Ab2.2). A total of three doses (1 per week) were administered."}, "[4]": {"test_system": "Npm1c on Dmnt3a R882H mutant cells", "test": "Staining of Dnmt3a R882H mutant (pre-leukemia) cells", "assay_type": "cell-based", "conditions": "single Dmnt3a R882H mutant cells; vs IgG control", "from_the_text": "DNMT3a mutations are directly associated with clonal hematopoiesis of indeterminate potential (CHIP) and pre-leukemia. To test whether Ab2.2 could detect Npm1c on Dmt3a R882H mutant cells Dmnt3a^R882H/−, and Dmnt3a^R882H/−/Npm1c cells were stained with either IgG control or Ab2.2."}, "human tumor models": {"test_system": "human tumor models", "test": "Flow cytometry binding to in vitro tumor models", "assay_type": "cell-based", "conditions": "various tumor types", "from_the_text": "To assess the ability of Ab2.2 to bind to human tumors, in vitro models of various types were investigated using flow cytometry. The tumor models assessed for Ab2.2 binding were murine melanoma, lung carcinoma (human), Laryngeal carcinoma, colorectal (human and murine), Ewing sarcoma (Human), Pharyngeal carcinoma (Human), Pancreatic carcinoma (Human), Oesophageal cancer (Human), Osteosarcoma (Human), Neuroblastomas (Human), Brain tumors (Human), Hematological malignancies, Fibrosarcoma, Prostate cancers, and Pancreatic adenocarcinoma (Murine) (FIGS. 27A-27O)."}, "[5]": {"test_system": "OCI-AML3 cells (human AML)", "test": "Survival of SCID CB17 mice engrafted with OCI-AML3 cells", "assay_type": "in vivo", "conditions": "10 mg/kg weekly, 4 doses", "method": "The ability of Ab2.2 to extend lifespan in mouse models xenografted with human AML cell line was assessed. SCID CB17 mice received transplantation of OCI-AML3 cells (human AML). Next, engrafted mice received weekly treatment of Ab2.2 (target group) or IgG (control group). The target group received 10 mg/kg dose of Ab2.2. Mice received a total of 4 doses. Mice were assessed for overall survival, and molecular phenotyping (FIG. 30A).\nAntibody binding was assessed using flow cytometry (FIG. 30B). […] (FIG. 30C). Therefore, lifespan extension is observed in mice engrafted with human AML cell line and with natural killer (NK) cells and complement that are treated with Ab2.2."}, "[6]": {"conditions": "three healthy donor bone marrow samples"}, "[7]": {"conditions": "three days after the first dose, vs IgG treated mice"}},
  "note": "“Also recorded” adds a separate entry of the source.",
  "data": [
    {"molecule": "B1", "values": [
      {"measurement": "cells double positive for CD34+ and Ab2.2", "setting": "[1]; Donor 1", "result": 3.78, "unit": "%"},
      {"measurement": "cells double positive for CD34+ and Ab2.2", "setting": "[1]; Donor 2", "result": "less than 3%"},
      {"measurement": "cells double positive for CD34+ and Ab2.2", "setting": "[1]; Donor 3", "result": "less than 3%"},
      {"measurement": "binding to CD33+ cells", "setting": "[1]; [6]", "result": "partially binds"},
      {"measurement": "binding to healthy HSCs (CD34+ cells)", "setting": "[1]; [6]", "result": "little to no binding; also recorded: no observable binding"},
      {"measurement": "hematopoiesis (spleen weight, HGB and HCT levels)", "setting": "NPM1c/Flt3-ITD AML; three doses (1 per week)", "result": "resolves defects in hematopoiesis"},
      {"measurement": "tumor burden (total WBC count and qPCR)", "setting": "NPM1c/Flt3-ITD AML; three doses (1 per week)", "result": "reduced tumor burden"},
      {"measurement": "overall survival", "setting": "NPM1c/Flt3-ITD AML; three doses, study ended at day 100", "result": "improved the overall survival"},
      {"measurement": "Survival", "setting": "MLL-AF9/Flt3-ITD AML; 5 mg/kg IP weekly, 4 doses", "result": "about 55 days"},
      {"measurement": "mean survival compared with IgG treated animals", "setting": "MLL-AF9/Flt3-ITD AML; 5 mg/kg IP weekly, 4 doses, p=0.0027", "result": "significantly higher"},
      {"measurement": "liver weight", "setting": "MLL-AF9/Flt3-ITD AML; [7]", "result": "weighed less"},
      {"measurement": "lung weight", "setting": "MLL-AF9/Flt3-ITD AML; [7]", "result": "weighed less"},
      {"measurement": "spleen weight", "setting": "MLL-AF9/Flt3-ITD AML; [7]", "result": "weighed less"},
      {"measurement": "HGB levels", "setting": "[2]", "result": "no significant difference"},
      {"measurement": "PLT levels", "setting": "[2]", "result": "no significant difference"},
      {"measurement": "WBC count", "setting": "[2]", "result": "no significant difference"},
      {"measurement": "weight", "setting": "[2]", "result": "no significant difference"},
      {"measurement": "tumor volume", "setting": "[3]", "result": "reduces tumor volume"},
      {"measurement": "surface detection of Npm1c", "setting": "[4]", "result": "high surface detection"},
      {"measurement": "binding to tumor models in vitro", "setting": "human tumor models", "result": "binds to a diverse set of human tumor models"},
      {"measurement": "survival after transplantation", "setting": "[5]", "result": "over 40 days"},
      {"measurement": "survival compared with IgG treated mice", "setting": "[5]; p=0.0015", "result": "significantly longer"}
    ]}
  ]
}
